# The supplement of paper PMC8728848
# Some of the results follow.
# How the values were obtained:
# Assay in all cases: glycan array binding signal (z-score within array); higher = stronger binding
# Details in all cases: glycan notation: IUPAC condensed, linker removed
# Gal(b1-4)Glc = molecular target: Gal(b1-4)Glc
# Procedure, shortened: (§1)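 The binding signal is a Z-score computed within each array and averaged over linkers. Arrays of the same protein sequence at different concentrations or buffers were also averaged together. Data originate from 3228 arrays in the Consortium for Functional Glycomics database, kept only where the protein sequence was available.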
# Gal(b1-4)Glc6S = molecular target: Gal(b1-4)Glc6S
# Procedure, shortened: as §1
# Gal(b1-4)GlcNAc = molecular target: Gal(b1-4)GlcNAc
# Procedure, shortened: as §1
# [1] = molecular target: Gal(b1-4)GlcNAc(a1-6)Gal(b1-4)GlcNAc
# Procedure, shortened: as §1
# Gal(b1-4)GlcNAc(b1-2)Man = molecular target: Gal(b1-4)GlcNAc(b1-2)Man
# Procedure, shortened: as §1
# [2] = molecular target: Gal(b1-4)GlcNAc(b1-2)Man(a1-3)Man(b1-4)GlcNAc(b1-4)GlcNAc
# Procedure, shortened: as §1
# [3] = molecular target: Gal(b1-4)GlcNAc(b1-2)Man(a1-3)[Gal(b1-4)GlcNAc(b1-2)Man(a1-6)]Man(b1-4)GlcNAc(b1-4)GlcNAc
# Procedure, shortened: as §1
# [4] = molecular target: Gal(b1-4)GlcNAc(b1-2)Man(a1-3)[Gal(b1-4)GlcNAc(b1-2)Man(a1-6)]Man(b1-4)GlcNAc(b1-4)[Fuc(a1-6)]GlcNAc
# Procedure, shortened: as §1
# [5] = molecular target: Gal(b1-4)GlcNAc(b1-2)Man(a1-3)[Gal(b1-4)GlcNAc(b1-2)Man(a1-6)][Gal(b1-4)GlcNAc(b1-4)]Man(b1-4)GlcNAc(b1-4)[Fuc(a1-6)]GlcNAc
# Procedure, shortened: as §1
# [6] = molecular target: Gal(b1-4)GlcNAc(b1-2)Man(a1-3)[Gal(b1-4)GlcNAc(b1-2)Man(a1-6)][GlcNAc(b1-4)]Man(b1-4)GlcNAc(b1-4)[Fuc(a1-6)]GlcNAc
# Procedure, shortened: as §1
# [7] = molecular target: Gal(b1-4)GlcNAc(b1-2)Man(a1-3)[GlcNAc(b1-2)Man(a1-6)]Man(b1-4)GlcNAc(b1-4)GlcNAc
# Procedure, shortened: as §1
# [8] = molecular target: Gal(b1-4)GlcNAc(b1-2)Man(a1-3)[GlcNAc(b1-4)][Gal(b1-4)GlcNAc(b1-2)Man(a1-6)]Man(b1-4)GlcNAc(b1-4)GlcNAc
# Procedure, shortened: as §1
# [9] = molecular target: Gal(b1-4)GlcNAc(b1-2)Man(a1-3)[Man(a1-6)]Man(b1-4)GlcNAc(b1-4)GlcNAc
# Procedure, shortened: as §1
# [10] = molecular target: Gal(b1-4)GlcNAc(b1-2)Man(a1-6)Man(b1-4)GlcNAc(b1-4)GlcNAc
# Procedure, shortened: as §1
# [11] = molecular target: Gal(b1-4)GlcNAc(b1-2)Man(a1-6)[GlcNAc(b1-2)Man(a1-3)]Man(b1-4)GlcNAc(b1-4)GlcNAc
# Procedure, shortened: as §1
# [12] = molecular target: Gal(b1-4)GlcNAc(b1-2)Man(a1-6)[Man(a1-3)]Man(b1-4)GlcNAc(b1-4)GlcNAc
# Procedure, shortened: as §1
# [13] = molecular target: Gal(b1-4)GlcNAc(b1-2)[Gal(b1-4)GlcNAc(b1-4)]Man(a1-3)[Gal(b1-4)GlcNAc(b1-2)Man(a1-6)]Man(b1-4)GlcNAc(b1-4)GlcNAc
# Procedure, shortened: as §1
# [14] = molecular target: Gal(b1-4)GlcNAc(b1-2)[Gal(b1-4)GlcNAc(b1-4)]Man(a1-3)[Gal(b1-4)GlcNAc(b1-2)[Gal(b1-4)GlcNAc(b1-6)]Man(a1-6)]Man(b1-4)GlcNAc(b1-4)GlcNAc
# Procedure, shortened: as §1
# [15] = molecular target: Gal(b1-4)GlcNAc(b1-2)[Gal(b1-4)GlcNAc(b1-4)]Man(a1-3)[GlcNAc(b1-4)][Gal(b1-4)GlcNAc(b1-2)Man(a1-6)]Man(b1-4)GlcNAc(b1-4)GlcNAc
# Procedure, shortened: as §1
# [16] = molecular target: Gal(b1-4)GlcNAc(b1-2)[Gal(b1-4)GlcNAc(b1-4)]Man(a1-3)[GlcNAc(b1-4)][Gal(b1-4)GlcNAc(b1-2)[Gal(b1-4)GlcNAc(b1-6)]Man(a1-6)]Man(b1-4)GlcNAc(b1-4)GlcNAc
# Procedure, shortened: as §1
# [17] = molecular target: Gal(b1-4)GlcNAc(b1-2)[Gal(b1-4)GlcNAc(b1-6)]Man(a1-6)[Gal(b1-4)GlcNAc(b1-2)Man(a1-3)]Man(b1-4)GlcNAc(b1-4)GlcNAc
# Procedure, shortened: as §1
# [18] = molecular target: Gal(b1-4)GlcNAc(b1-2)[Gal(b1-4)GlcNAc(b1-6)]Man(a1-6)[Gal(b1-4)GlcNAc(b1-2)Man(a1-3)]Man(b1-4)GlcNAc(b1-4)[Fuc(a1-6)]GlcNAc
# Procedure, shortened: as §1
# [19] = molecular target: Gal(b1-4)GlcNAc(b1-2)[Gal(b1-4)GlcNAc(b1-6)]Man(a1-6)[GlcNAc(b1-4)][Gal(b1-4)GlcNAc(b1-2)Man(a1-3)]Man(b1-4)GlcNAc(b1-4)GlcNAc
# Procedure, shortened: as §1
# [20] = molecular target: Gal(b1-4)GlcNAc(b1-2)[Gal(b1-4)GlcNAc(b1-6)]Man(a1-6)[GlcNAc(b1-4)][Gal(b1-4)GlcNAc(b1-2)[Gal(b1-4)GlcNAc(b1-4)]Man(a1-3)]Man(b1-4)GlcNAc(b1-4)[Fuc(a1-6)]GlcNAc
# Procedure, shortened: as §1
# [21] = molecular target: Gal(b1-4)GlcNAc(b1-3)Gal(b1-3)GalNAc
# Procedure, shortened: as §1
# [22] = molecular target: Gal(b1-4)GlcNAc(b1-3)Gal(b1-3)GlcNAc
# Procedure, shortened: as §1
# [23] = molecular target: Gal(b1-4)GlcNAc(b1-3)Gal(b1-4)Glc
# Procedure, shortened: as §1
# [24] = molecular target: Gal(b1-4)GlcNAc(b1-3)Gal(b1-4)GlcNAc
# Procedure, shortened: as §1
# [25] = molecular target: Gal(b1-4)GlcNAc(b1-3)Gal(b1-4)GlcNAc(b1-2)Man(a1-3)[Gal(b1-4)GlcNAc(b1-3)Gal(b1-4)GlcNAc(b1-2)Man(a1-6)]Man(b1-4)GlcNAc(b1-4)GlcNAc
# Procedure, shortened: as §1
# [26] = molecular target: Gal(b1-4)GlcNAc(b1-3)Gal(b1-4)GlcNAc(b1-2)Man(a1-3)[Gal(b1-4)GlcNAc(b1-3)Gal(b1-4)GlcNAc(b1-2)Man(a1-6)]Man(b1-4)GlcNAc(b1-4)[Fuc(a1-6)]GlcNAc
# Procedure, shortened: as §1
# [27] = molecular target: Gal(b1-4)GlcNAc(b1-3)Gal(b1-4)GlcNAc(b1-2)[Gal(b1-4)GlcNAc(b1-3)Gal(b1-4)GlcNAc(b1-6)]Man(a1-6)[Gal(b1-4)GlcNAc(b1-3)Gal(b1-4)GlcNAc(b1-2)Man(a1-3)]Man(b1-4)GlcNAc(b1-4)GlcNAc
# Procedure, shortened: as §1
# [28] = molecular target: Gal(b1-4)GlcNAc(b1-3)Gal(b1-4)GlcNAc(b1-2)[Gal(b1-4)GlcNAc(b1-3)Gal(b1-4)GlcNAc(b1-6)]Man(a1-6)[Gal(b1-4)GlcNAc(b1-3)Gal(b1-4)GlcNAc(b1-2)Man(a1-3)]Man(b1-4)GlcNAc(b1-4)[Fuc(a1-6)]GlcNAc
# Procedure, shortened: as §1
# [29] = molecular target: Gal(b1-4)GlcNAc(b1-3)Gal(b1-4)GlcNAc(b1-3)Gal(b1-4)GlcNAc
# Procedure, shortened: as §1
# [30] = molecular target: Gal(b1-4)GlcNAc(b1-3)Gal(b1-4)GlcNAc(b1-3)Gal(b1-4)GlcNAc(b1-2)Man(a1-3)[Gal(b1-4)GlcNAc(b1-3)Gal(b1-4)GlcNAc(b1-3)Gal(b1-4)GlcNAc(b1-2)Man(a1-6)]Man(b1-4)GlcNAc(b1-4)GlcNAc
# Procedure, shortened: as §1
# [31] = molecular target: Gal(b1-4)GlcNAc(b1-3)Gal(b1-4)GlcNAc(b1-3)Gal(b1-4)GlcNAc(b1-2)Man(a1-3)[Gal(b1-4)GlcNAc(b1-3)Gal(b1-4)GlcNAc(b1-3)Gal(b1-4)GlcNAc(b1-2)Man(a1-6)]Man(b1-4)GlcNAc(b1-4)[Fuc(a1-6)]GlcNAc
# Procedure, shortened: as §1
# [32] = molecular target: Gal(b1-4)GlcNAc(b1-3)Gal(b1-4)GlcNAc(b1-3)Gal(b1-4)GlcNAc(b1-2)[Gal(b1-4)GlcNAc(b1-3)Gal(b1-4)GlcNAc(b1-3)Gal(b1-4)GlcNAc(b1-6)]Man(a1-6)[Gal(b1-4)GlcNAc(b1-3)Gal(b1-4)GlcNAc(b1-3)Gal(b1-4)GlcNAc(b1-2)Man(a1-3)]Man(b1-4)GlcNAc(b1-4)[Fuc(a1-6)]GlcNAc
# Procedure, shortened: as §1
# [33] = molecular target: Gal(b1-4)GlcNAc(b1-3)Gal(b1-4)GlcNAc(b1-3)Gal(b1-4)GlcNAc(b1-3)Gal(b1-4)GlcNAc(b1-2)Man(a1-3)[Gal(b1-4)GlcNAc(b1-3)Gal(b1-4)GlcNAc(b1-3)Gal(b1-4)GlcNAc(b1-3)Gal(b1-4)GlcNAc(b1-2)Man(a1-6)]Man(b1-4)GlcNAc(b1-4)GlcNAc
# Procedure, shortened: as §1
binder,measurement,setting,value
SP16663B-bot-321-25-321 (Bacteroides ovatus) (protein) DDDDEVTMNSKFYLSTKVFPVDSYEASLSVILKDNSVVVNELQPNYRFVACATERLSKDVKITADSDDNLVSAYNKANDTEYNILPAENYSFTNKTVTIENGESVSGDSIKIELLNVGSLTTEGGYLLPVTISSIEGNNLDALSSNRGVVYLKIQNIHVNVESGQPAEGTLIADRSGWTVKVAPTTRGDAKNLIDGTNSDVARDGGAEYWLTVDIGKVQTLTGIRNKCYASSYSPTAVEVFTSSDGAKWKSIGAVTISKSGTQYIKFSKAVETRYLKYYVKQGPNTVSLTEFDLYAK,glycan array binding signal (z-score),Gal(b1-4)Glc,0.09
same,glycan array binding signal (z-score),Gal(b1-4)Glc6S,-0.104
same,glycan array binding signal (z-score),Gal(b1-4)GlcNAc,-0.31
same,glycan array binding signal (z-score),[1],0.302
same,glycan array binding signal (z-score),Gal(b1-4)GlcNAc(b1-2)Man,0.446
same,glycan array binding signal (z-score),[2],-0.034
same,glycan array binding signal (z-score),[3],-0.627
same,glycan array binding signal (z-score),[4],-0.475
same,glycan array binding signal (z-score),[5],0.027
same,glycan array binding signal (z-score),[6],0.141
same,glycan array binding signal (z-score),[7],0.02
same,glycan array binding signal (z-score),[8],-0.471
same,glycan array binding signal (z-score),[9],-0.361
same,glycan array binding signal (z-score),[10],-0.62
same,glycan array binding signal (z-score),[11],-0.271
same,glycan array binding signal (z-score),[12],-0.259
same,glycan array binding signal (z-score),[13],-0.29
same,glycan array binding signal (z-score),[14],0.097
same,glycan array binding signal (z-score),[15],0.089
same,glycan array binding signal (z-score),[16],-0.309
same,glycan array binding signal (z-score),[17],0.426
same,glycan array binding signal (z-score),[18],0.25
same,glycan array binding signal (z-score),[19],-0.598
same,glycan array binding signal (z-score),[20],0.131
same,glycan array binding signal (z-score),[21],-0.127
same,glycan array binding signal (z-score),[22],-0.368
same,glycan array binding signal (z-score),[23],-0.281
same,glycan array binding signal (z-score),[24],0.031
same,glycan array binding signal (z-score),[25],0.366
same,glycan array binding signal (z-score),[26],0.071
same,glycan array binding signal (z-score),[27],0.728
same,glycan array binding signal (z-score),[28],0.209
same,glycan array binding signal (z-score),[29],-0.425
same,glycan array binding signal (z-score),[30],0.449
same,glycan array binding signal (z-score),[31],0.195
same,glycan array binding signal (z-score),[32],-0.645
same,glycan array binding signal (z-score),[33],-0.442
